Source: PubChem BioAssay AID1963319 (National Center for Advancing Translational Sciences (NCATS), 2024)
In all, about 1,300 compounds went through this assay and about 120 (9.2%) were called active. Inconclusive results, whose numbers are uncertain, are shown with a selection of clear calls. Calls follow the shape of the dose curve; as a rule, active = well fitted activation curve with a large enough effect; inconclusive = small, poorly fitted or top-dose-only effect; inactive = flat fitted curve, though single readings scatter. A potency beside an inconclusive call is a rough fit, not a confirmed value.

molecular target: Luciferin 4-monooxygenase (Photinus pyralis) (UniProt P08659); test: Firefly luciferase (FLuc-C-HiBiT) SDR gain of signal screen - plus ATP; conditions: purified FLuc-C-HiBiT + ATP, HiBiT complementation luminescence; series mostly up to 32.7 µM;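 also: signal reports ligand binding via conformational change of the enzyme rather than luciferase catalysis; nearly all actives have a fitted effect of over 55% in size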
Summary of the method: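 Luminescence read-out of HiBiT complementation (structural dynamics response): enzyme at 10 nM final, 10 uM ATP, compound preincubation >30 min at RT, then Nano-Glo HiBiT detection for 5-10 min before CCD imaging with 1 sec exposure.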
Potency is read from the fitted curve at half-maximal effect; tags tell the direction and shape of the fitted curve.

UniProt P08659, sequence (P08659 whole entry, looked up): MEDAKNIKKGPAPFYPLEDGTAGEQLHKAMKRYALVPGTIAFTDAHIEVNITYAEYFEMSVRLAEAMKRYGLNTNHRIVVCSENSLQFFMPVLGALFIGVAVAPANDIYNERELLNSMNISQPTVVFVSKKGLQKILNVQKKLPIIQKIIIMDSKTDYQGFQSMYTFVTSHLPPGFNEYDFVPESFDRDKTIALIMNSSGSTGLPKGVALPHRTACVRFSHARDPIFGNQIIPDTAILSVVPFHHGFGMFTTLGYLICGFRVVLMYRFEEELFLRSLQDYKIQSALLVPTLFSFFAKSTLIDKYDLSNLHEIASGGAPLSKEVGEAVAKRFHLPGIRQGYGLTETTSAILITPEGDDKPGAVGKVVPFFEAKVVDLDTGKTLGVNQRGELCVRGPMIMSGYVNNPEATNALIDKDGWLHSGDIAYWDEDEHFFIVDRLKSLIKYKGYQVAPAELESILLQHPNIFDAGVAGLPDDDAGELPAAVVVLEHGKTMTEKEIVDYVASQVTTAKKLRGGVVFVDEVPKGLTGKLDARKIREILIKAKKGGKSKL

Potency, inconclusive:
CCN1c2cc(C(=O)Nc3ccc4c(c3)OCCO4)ccc2C(=O)N2CCCCC21 (stereo not given) 9.89 µM [activator, partial curve, poor fit], Cc1ccc2nc(-c3ccc(NC(=O)C(F)(F)F)cc3)sc2c1 2.21 µM [activator, full curve], CC1CCCN(c2ncnc3c2cnn3-c2ccc(F)cc2)C1 (stereo not given) 3.51 µM [activator, partial curve], Cc1ccc(-n2ncc3c(NC4CCCC4)ncnc32)cc1 4.42 µM [activator, partial curve], CCOc1ccc(-c2cc(CCCC(=O)NCCc3ccc(OC)c(OC)c3)no2)cc1 7.85 µM [activator, partial curve, poor fit], COc1cccc(-c2cc3c(=O)n(CCNC(=O)C4CCN(C(C)=O)CC4)ccn3n2)c1 11.1 µM [activator, partial curve, poor fit], COc1ccc(-c2cc3c(=O)n(CCNC(=O)Cc4cccs4)ccn3n2)cc1 12.4 µM [activator, partial curve, poor fit], CC(C)CCNC(=O)c1ccc2c(c1)nc1n2CCCCC1 12.4 µM [activator, partial curve], CCOc1ccc(/C=C/c2nc3ccccc3n2S(=O)(=O)c2cccc(Cl)c2)cc1 2.48 µM [activator, full curve], Cc1ccc(-c2cc3c(=O)n(CCNC(=O)c4cccc(Cl)c4)ccn3n2)c(C)c1 14 µM [activator, partial curve], Cc1ccc(-n2ncc3c(N4CCC(C)CC4)ncnc32)cc1C 2.21 µM [activator, full curve, poor fit], CCCC(=O)Nc1cnc(-c2ccc(C)cc2)nc1 8.81 µM [activator, partial curve], COc1ccc(NC(=O)Nc2cccc(-c3ccc(N4CCCCC4)nn3)c2)c(OC)c1 9.89 µM [activator, partial curve], CNC(=O)CCn1ncc2cc(OCc3ccccc3-c3cccc(NC(C)=O)c3)ccc21 14 µM [activator, partial curve, poor fit], Cc1ccc(NC(=O)C2CCN(c3nc(-c4ccc(C(C)C)cc4)no3)CC2)c(Cl)c1 15.7 µM [activator, partial curve, poor fit], Cc1ccc(-n2nc(C)c([C@@H]3C=C[C@@H](NC(=O)NC(C)C)C3)c2C)cc1Cl 8.05 µM [activator, partial curve, poor fit], Cc1ccc(C2=CC(c3ccccc3C)n3c(nc4ccccc43)N2)cc1 (stereo not given) 2.21 µM [activator, full curve, poor fit], COc1ccc2cc(C3CN(C(=O)CCc4n[nH]c(C)n4)CCO3)ccc2c1 (stereo not given) 12.4 µM [activator, partial curve], CN(C)c1cccc(C(=O)Nc2ccc(-c3nc4ccccc4s3)cc2)c1 0.989 µM [activator, full curve, poor fit], COc1ccc(-c2noc(Nc3ccc4c(c3)OCCO4)n2)cc1 5.56 µM [activator, partial curve, poor fit], COc1ccc(CNC(=O)Nc2cccc(-c3ccc(N4CCCCC4)nn3)c2)cc1 3.94 µM [activator, full curve], CC(=O)NC1(C)CN(Cc2ccc(-c3ccc4c(ccn4C)c3)s2)C1 1.43 µM [activator, full curve, poor fit], O=C(O)c1cccc(-c2noc(-c3cc([N+](=O)[O-])cc([N+](=O)[O-])c3)n2)c1 0.989 µM [activator, full curve], CCOc1cccc(CNC(=O)C2CCN(C(=O)c3ncn4c3COC(c3ccccc3)C4)CC2)c1 (stereo not given) 12.4 µM [activator, partial curve], Cc1cc2nc(-c3cccc(NC(=O)COc4ccc(C(C)C)cc4)c3)oc2cc1C 8.81 µM [activator, partial curve, poor fit], COc1ccc(/C=C/c2ccc3c(c2)C(=O)N2CC[C@H](NC(=O)CCC(=O)O)[C@H]2C(=O)N3)cc1 17.6 µM [activator, partial curve, poor fit], CCC(C)NC(=O)Cn1c(C)ccc(NC(=O)Nc2ccc(C)cc2)c1=O (stereo not given) 3.51 µM [activator, full curve], O=C(NCc1cc(F)ccc1F)C1CCN(C(=O)c2ncn3c2COC(c2ccccc2)C3)CC1 (stereo not given) 2.79 µM [activator, full curve], Cc1ccc(NC(=O)N2CCC(CCNC(=O)C3CCC3)CC2)cc1F 14 µM [activator, partial curve, poor fit], CCOc1cc2sc(N3CCC(C(=O)Nc4ccc(C(C)C)cc4)CC3)nc2cc1Br 8.81 µM [activator, partial curve], COc1ccc(C(=O)NCCn2ccn3nc(-c4ccc(C)cc4C)cc3c2=O)cc1F 5.56 µM [activator, partial curve, poor fit], O=C(NCCc1cccs1)C1CCN(C(=O)c2ncn3c2COC(c2ccccc2)C3)CC1 (stereo not given) 5.56 µM [activator, partial curve], COCCNC(=O)[C@@H](C)C1CC[C@@]2(C)Cc3sc(CSc4ccccc4)nc3[C@@H](C)[C@@H]2[C@H]1O (stereo not given in full) 3.94 µM [activator, full curve, poor fit], CCOC(=O)c1ccc(NC2SC(=O)N(Cc3cccc(C(=O)O)c3)C2=O)cc1 (stereo not given) 15.7 µM [activator, partial curve], CC(=O)NC1(C)CCN(Cc2ccc(-c3ccc4c(ccn4C)c3)cc2)C1 (stereo not given) 3.21 µM [activator, full curve, poor fit], CC(=O)NC1(C)CCN(Cc2cccc(-c3ccc4ccccc4c3)c2)C1 (stereo not given) 4.53 µM [activator, full curve, poor fit], O=C(NCC1CC1)C1CCN(C(=O)c2ncn3c2COC(c2ccccc2)C3)CC1 (stereo not given) 6.24 µM [activator, partial curve]

Potency, active:
CNc1ccc2cc(-c3nc4ccc(C(=O)O)cc4s3)ccc2c1 0.014 µM, CCOc1cccc2cc(-c3nc4ccc(C(=O)O)cc4[nH]3)c(=O)oc12 0.157 µM, CCN(CC)c1cc(CCC(=O)O)ccn1 1.57 µM, Cc1ccc(C(=O)Nc2cccc(C(=O)O)c2)cc1 0.0495 µM, CCCNC(=O)C1C(c2cccc(NC(=O)c3ccc(C)cc3)c2)OC(=O)N1Cc1ccc(C)cc1 (stereo not given) 4.42 µM, COc1ccc(-c2nc(-c3cccc(C(=O)O)c3)no2)cc1 0.0031 µM, O=C(O)c1cccc2c1CCN2C(=O)Nc1ccc(F)cc1 0.0062 µM

Potency, inactive:
Cc1cccc(NC(=O)c2c(N)sc3c2CCC(C)C3)c1 (stereo not given), CCc1ccc(CNC(=O)C2CCCN(c3nn4cc(-c5ccc(F)cc5)nc4s3)C2)cc1 (stereo not given), C[S+](=O)([O-])CCn1ncc2cc(OCc3cccc(-c4ccccc4O)c3)ccc21, COc1cccc(CN2CCc3nc(C(=O)Nc4nc(C)cs4)oc3CC2)c1, Cc1ccc(C(=O)NCCn2cccc2-c2nc(-c3ccc4c(c3)OCO4)no2)cn1, Cc1ccc(C(=O)Nc2cccc3cccnc23)cc1Cl, c1ccc(COc2ccccc2-c2nc3ccccc3s2)cc1, CCOC(=O)c1cc(-c2ccccc2)nn1Cc1ccccc1, O=C(NCCC1CCN(C(=O)Nc2cc(F)cc(F)c2)CC1)c1ccc(F)cc1, Cc1ccc(-c2noc([C@@H]3Cc4nc[nH]c4CN3C(=O)Nc3cccc(F)c3)n2)cc1, CCc1cccc(NC(=O)Nc2cccc(-c3ccc(N4CCOCC4)nn3)c2)c1, c1ccc(CNc2nc(-c3ccccc3)no2)cc1, COc1cccc(-c2nc3ccc(-c4ccc5c(c4)OCO5)cc3o2)c1OC, Cc1ccc(-c2cccc(COc3cnc4c(ccn4CC(=O)O)c3)c2)c(C)c1, CCN1C(=O)CCc2cc(NC(=O)c3ccc(OC(F)(F)F)cc3)ccc21, Cc1ccc(-c2nnc(C3CN(C(=O)c4sc(C)nc4C)CC34CCOCC4)o2)cc1 (stereo not given), CCOC(=O)c1ccc(NC(=O)c2nsc3ccccc23)cc1, CN1CCC(NC(=O)C(C)(C)Oc2nn(Cc3ncccn3)c3ccccc23)CC1, COc1cccc(C(=O)Nc2ccccc2-c2nc3ccccc3s2)c1, CSCC(=O)Nc1nn(-c2ccc(F)cc2)c2cccc(N3CCOCC3)c12, c1ccc(COc2ccc(CN3CCSCC3)cc2)nc1, O=C(COc1ccc(Cl)cc1)Nc1ccc(-c2nc3ccccc3s2)c(O)c1, Cc1ccc(-c2nnc(SCc3ccccc3C)o2)cc1, Cc1ccc(-c2cc3c(=O)n(CCNC(=O)c4ccc(N(C)C)cc4)ccn3n2)c(C)c1, Cn1c([C@H]2CCN(C3CCCCC3)C2)nc2ccccc21, COc1ccc(C(=O)COC(=O)CCCC(=O)Nc2ccc(C(C)=O)cc2)cc1
